# Measurements: publication PMC12040169 (PLOS Biology, 2025)
# The list shows a part of the results.
# Tested on: T1, C. trachomatis L2/434/Bu expressing GFP (CTL2-GFP)
# T1 construct: L2/434/Bu GFP intracellular growth in HeLa cells
# Design: species or system HeLa; C. trachomatis total inclusion area by high-content imaging, normalised to DMSO
# Conditions: total inclusion area; 28.5 h, 10 µM; inhibitor
# Method in brief: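 Bulk GFP and resorufin signals were read first. Wells were then fixed, stained with Hoechst and imaged to detect GFP inclusions and host nuclei. MICs followed the previously described calculation.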
row,Compound,% of control remaining
1,COc1ccc(C(=O)O)cc1NC(=S)NC(=O)c1ccc(-c2ccccc2)cc1 [CBK265064],120.082
2,CCCC/C=C/c1cnc(N)c(-c2ccc(O)cc2)n1 [CBK064068],117.79
3,CC(C)[C@H]1CN(Cc2ccco2)CCN1C(=O)NCc1ccccc1 [CBK284274],78.7992
4,CC1CCCN(C(=O)c2coc(COc3ccc(F)cc3)n2)C1 (stereo not shown) [CBK306874],89.5051
5,CCOc1ccccc1-c1noc(-c2nn(-c3ccc(C)cc3)ccc2=O)n1 [CBK288597],79.0204
6,CCCCCC/C=C/c1cnc2nc(NC(=O)NCC)ccc2c1 [CBK061880],63.5237
7,O=C(O)c1ccc2c(c1)CCN2S(=O)(=O)c1ccc(S(=O)(=O)N2CCOCC2)cc1 [CBK295625],113.449
8,O=C(O)CCN1C(=O)c2ccc(Oc3ccc([N+](=O)[O-])cc3)cc2C1=O [CBK263357],115.811
9,N/C(=N\c1nonc1N)NC(=O)c1ccccc1 [CBK006756],75.9508
10,CC1(C)C[C@H](NC2CCOCC2)[C@@]2(CCC(=O)N3CCOCC3)CC[C@](C)(O)C[C@@H]12 [CBK289041],105.53
11,CNCC(=O)N1c2ccccc2CCc2ccc(NC(=O)OC)cc21 [CBK261285C],93.8075
12,O=C(CCc1ccccc1)NC(c1cccc([N+](=O)[O-])c1)c1c(O)ccc2ccccc12 (stereo not shown) [CBK265278],87.8667
13,CCN(CC)C(=O)CN1CC=C(c2ccc(C)o2)CC1 [CBK283497],99.2262
14,OC(c1cccs1)C1CCN(Cc2cnn(-c3ccccc3)c2)CC1 (stereo not shown) [CBK307290],51.0662
15,CC(C)Oc1ccc(C(=O)C2=C(O)C(=O)N(CCN(C)C)C2c2ccccc2F)cc1 (stereo not shown) [CBK264886],112.401
16,O=C(NCCN1CCOCC1)N1CCN(c2ccccc2)CC1 [CBK155180],85.7891
17,CCn1c(=O)n(CC(=O)NCc2ccc(F)cc2)c2cccnc21 [CBK283901],86.5725
18,O=C(CSc1nnc(-c2cccnc2)n1Cc1ccccc1)Nc1ccc(F)cc1 [CBK267528],91.9749
19,O=C(CN1CCOCC1)Nc1ccc(S(=O)(=O)Nc2cc(Cl)cc(Cl)c2)cc1 [CBK001239],80.5483
20,Nc1ncc(-c2cccc(/C=C/C(=O)O)c2)nc1NCc1ccco1 [CBK063691],139.907
21,OC(COCc1ccc(Cl)cc1)CN1CCN(C(c2ccccc2)c2ccccc2)CC1 (stereo not shown) [CBK074857C],89.1701
22,N#Cc1c2c(c3nncn3c1Nc1ccccc1)CCCC2 [CBK288197],100.593
23,O=S(=O)(NCc1nc(-c2ccccc2)no1)c1ccc(F)cc1 [CBK268198],99.7118
24,Cc1ccc(S(=O)(=O)N2CCN(C(=O)C3CCCCC3C(=O)O)CC2)cc1C (stereo not shown) [CBK286936],88.063
25,O=C(N1CCc2ccc(S(=O)(=O)Nc3ccc(-c4nnn[nH]4)cc3)cc2C1)C(F)(F)F [CBK155437],92.4489

row,Compound,% of control remaining
1,O=C(O)c1cc(-c2cccc(O)c2)nc2ccc(Br)cc12 [CBK261777],107.64
2,O=C(Nc1cccc(N2CCNCC2)c1)c1cnc2ccccc2c1 [CBK029415T],94.1434
3,CCNC(=O)N1Cc2nc[nH]c2C[C@H]1C(=O)NCc1ccc(OC)cc1 [CBK288973],104.841
4,Fc1ccc(OCCNC2CCc3[nH]c4ccccc4c3C2)cc1 (stereo not shown) [CBK107791],82.9824
5,O=C(O)[C@H]1CN(C(=O)CCc2ccco2)C[C@@H]1c1ccc(F)cc1 [CBK283722],109.837
6,O=C1c2ccccc2C(=O)N1Cc1nc2ccccc2c(=O)n1CCN1CCOCC1 [CBK268472],87.4442
7,Cc1cc(NC(=O)c2ccco2)nc2c1c(=O)oc1ccccc12 [CBK291124],85.0274
8,N#CCn1c(-c2nonc2N)nc2ccccc21 [CBK050974],96.0468
9,Cc1ccc(OC(C)C(=O)NCCCN2CCOCC2)cc1C (stereo not shown) [CBK268109],113.17
10,COC(=O)c1sccc1S(=O)(=O)n1ccc2ccc(Br)cc21 [CBK003528],86.9947
11,Cc1ccc(S(=O)(=O)N(C)CC(=O)O/N=C(\N)c2cccnc2)cc1 [CBK266717],82.9016
12,CCOCCC(=O)NC1CCCc2nc(N3CCC(CO)CC3)ncc21 (stereo not shown) [CBK306624],35.8461
13,CCOc1ccc(OCC)c(S(=O)(=O)n2nc(C)cc2C)c1 [CBK264024],114.437
14,COCCNC(=O)NCCCn1c(-c2ccncc2)nc2cccnc21 [CBK288581],109.18
15,Cc1cc(C)n(CC(O)CN(Cc2ccco2)CC2CC=CCC2)n1 (stereo not shown) [CBK283159],86.7871
16,CCn1nc2c(c1C(=O)Nc1cccc(CCc3ccncc3)c1)CCCC2 [CBK285561],91.1193
17,Cc1ccc(-c2noc([C@@H]3Cc4[nH]cnc4CN3C(=O)c3cccs3)n2)cc1 [CBK288957],112.378
18,CCC(NC(=O)C(C)n1cc(Cl)cn1)c1ccc(OC)cc1 (stereo not shown) [CBK282029],126.966
19,O=C(O)c1cccc(CSCC(=O)N2CCC(Cc3ccccc3)CC2)c1 [CBK296675],119.831
20,CCc1nc2ccc(C(=O)Nc3ccc(C(N)=O)cc3)cn2c1N(C)CCC(C)C [CBK145476],101.194
21,CC(=O)N1CC(C(=O)Nc2ccccc2Cc2ccccc2)Oc2ccccc21 (stereo not shown) [CBK297525],90.2514
22,COc1ccc(C(C)C)cc1-c1ccc(C(=O)N2CCN(C)CC2)c(N(C)C)n1 [CBK106130],103.722
23,O=[N+]([O-])c1ccc(O)c(/C=N/Nc2nc(Nc3ccc(Cl)cc3)nc(N3CCOCC3)n2)c1 [CBK260918],99.8023
24,C=CCO[C@@H]1C[C@H]2C(=O)N3CC[C@H](NC(=O)[C@@H](O)c4ccccc4)C[C@H]3C(=O)N2C1 [CBK289556],69.088
